These results are taken from article PMC4336329 (PLoS ONE, 2015).

The campaign covered roughly 310,000 compounds. About 2,200 (0.71%) showed an effect of 50% or more. Effects have a minus sign here. The list shows a part of the results.

The target of the assay is human ether-à-go-go-related gene (hERG) potassium channel (human, UniProt Q12809). The experiment in a line: primary screen, population patch clamp on CHO cells stably expressing hERG.
Sequence of human ether-à-go-go-related gene (hERG) potassium channel (Q12809 whole entry, looked up): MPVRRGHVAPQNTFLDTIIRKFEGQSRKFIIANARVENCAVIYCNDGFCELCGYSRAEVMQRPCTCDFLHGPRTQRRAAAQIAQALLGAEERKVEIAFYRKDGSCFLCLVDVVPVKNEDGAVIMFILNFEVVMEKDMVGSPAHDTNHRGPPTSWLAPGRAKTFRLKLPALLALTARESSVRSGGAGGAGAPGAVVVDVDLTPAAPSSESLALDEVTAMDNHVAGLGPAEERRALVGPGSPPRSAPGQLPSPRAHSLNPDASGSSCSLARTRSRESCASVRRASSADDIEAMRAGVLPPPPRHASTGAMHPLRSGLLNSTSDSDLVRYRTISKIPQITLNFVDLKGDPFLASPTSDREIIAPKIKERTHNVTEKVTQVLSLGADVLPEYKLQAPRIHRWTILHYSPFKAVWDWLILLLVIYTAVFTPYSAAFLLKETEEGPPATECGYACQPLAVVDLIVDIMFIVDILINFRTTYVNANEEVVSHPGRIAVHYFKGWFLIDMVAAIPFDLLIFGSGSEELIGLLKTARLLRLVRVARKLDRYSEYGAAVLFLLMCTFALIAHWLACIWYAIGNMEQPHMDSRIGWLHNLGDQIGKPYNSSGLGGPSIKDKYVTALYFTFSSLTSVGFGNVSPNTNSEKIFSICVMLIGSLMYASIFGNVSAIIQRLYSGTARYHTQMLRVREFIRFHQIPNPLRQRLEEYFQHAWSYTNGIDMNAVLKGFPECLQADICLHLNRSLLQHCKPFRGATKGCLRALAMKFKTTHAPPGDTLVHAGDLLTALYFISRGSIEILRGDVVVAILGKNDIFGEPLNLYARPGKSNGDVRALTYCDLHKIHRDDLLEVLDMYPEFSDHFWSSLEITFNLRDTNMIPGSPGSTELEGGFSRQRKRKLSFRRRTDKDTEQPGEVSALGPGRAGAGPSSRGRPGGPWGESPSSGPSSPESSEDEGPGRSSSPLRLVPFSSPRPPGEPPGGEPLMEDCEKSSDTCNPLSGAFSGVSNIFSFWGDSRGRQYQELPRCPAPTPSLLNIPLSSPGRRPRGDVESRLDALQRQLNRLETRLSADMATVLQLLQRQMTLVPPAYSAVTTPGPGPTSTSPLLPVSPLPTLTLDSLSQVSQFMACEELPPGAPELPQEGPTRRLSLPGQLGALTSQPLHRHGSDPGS
With `COc1ccc(Br)cc1/C=N/NC(=O)c1nc(-c2ccccc2)n2c1CCCCC2`, the “hERG current change (%, negative = inhibition) at 1uM” value is reported as 14.1%.

Turning to `CCOc1ccc(S(=O)(=O)Nc2ccn(C)n2)cc1`, the “hERG current change (%, negative = inhibition) at 1uM” value is 6.54%.

Regarding `O=C(COC(=O)c1ccccc1Nc1ccccc1F)c1ccccc1`, the “hERG current change (%, negative = inhibition) at 1uM” value stood at 14.2%.

For `COc1cccc(OC)c1C(=O)Nc1ccc2c(c1)n(C)c(=O)n2C`, the “hERG current change (%, negative = inhibition) at 1uM” value is 17%.

In the case of `COc1ccc(C(=O)c2ccsc2N)cc1`, the “hERG current change (%, negative = inhibition) at 1uM” value is 9.55%.

Consider `O=C(Nc1nnc(CCOCCOCCc2nnc(NC(=O)c3ccco3)s2)s1)c1ccco1`, for which the “hERG current change (%, negative = inhibition) at 1uM” value came out at 2.67%.

Take `C/C(=N\NC(=O)c1ccc(Cl)cc1)c1cccc(NC(=O)c2cccnc2)c1`: the “hERG current change (%, negative = inhibition) at 1uM” value is 2.64%.

For `COc1nc(OCC#N)nc(N2CCCCC2)n1`, the “hERG current change (%, negative = inhibition) at 1uM” value turned out to be 11.8%.

On to `Nn1c(SCc2ccccc2)nc2ccccc21`, for which the “hERG current change (%, negative = inhibition) at 1uM” value is listed as 2.87%.

Regarding `O=C(O)Cc1ccc(NC(=O)c2cccs2)cc1`, the “hERG current change (%, negative = inhibition) at 1uM” value is reported as 9.59%.

As to `COC(=O)c1ccc(C)c(NC(=O)c2ccc(Cl)c([N+](=O)[O-])c2)c1`, the “hERG current change (%, negative = inhibition) at 1uM” value amounted to 5.94%.

Take `Cc1cccc(C)c1OCc1nnc(NC(=O)CSc2ccc(Cl)cc2)s1`: the “hERG current change (%, negative = inhibition) at 1uM” value is reported as 14.3%.

Consider `CC(C)(C)n1cn[nH]c1=S`, for which the “hERG current change (%, negative = inhibition) at 1uM” value is 13.8%.

Take `COc1ccc(S(=O)(=O)N2CCC(C(=O)N3CCc4ccccc4C3)CC2)cc1Cl`: the “hERG current change (%, negative = inhibition) at 1uM” value amounted to 1.48%.

With `O=C(Oc1ccc2c(=O)c(Cl)coc2c1)c1cccnc1`, the “hERG current change (%, negative = inhibition) at 1uM” value turned out to be 9.37%.

Consider `COc1ccccc1OCC(=O)NC1CCSc2ccccc21` (stereo not shown), for which the “hERG current change (%, negative = inhibition) at 1uM” value turned out to be 8.33%.

For the compound `COc1ccc(NC(=O)CN(C)S(=O)(=O)c2ccc3c(c2)CCCN3C(C)=O)cc1`, the “hERG current change (%, negative = inhibition) at 1uM” value was found to be 15.5%.

For `CC1(C)CC(=O)C=C(NCc2ccncc2)C1`, the “hERG current change (%, negative = inhibition) at 1uM” value turned out to be 8.08%.

Consider `COc1ccc(N2CCN(C(=O)c3cccc4nc(C)oc34)CC2)cc1`, for which the “hERG current change (%, negative = inhibition) at 1uM” value worked out at 10.8%.

Consider `COc1ccc(Nc2nnc(SCC(=O)N3CC(=O)Nc4ccccc43)s2)cc1`, for which the “hERG current change (%, negative = inhibition) at 1uM” value turned out to be 11.8%.

As for `CN(C(=O)COC(=O)c1cccc(S(=O)(=O)N2CCCCC2)c1)C1CCS(=O)(=O)C1` (stereo not shown), the “hERG current change (%, negative = inhibition) at 1uM” value is on record as -3.08%.

Consider `CC1CCC/C(=N\NS(=O)(=O)c2ccccc2)C1` (stereo not shown), for which the “hERG current change (%, negative = inhibition) at 1uM” value was 15.4%.

`Cc1c(C(=O)OCC(=O)Nc2ccccc2OC(F)F)cccc1[N+](=O)[O-]`: the “hERG current change (%, negative = inhibition) at 1uM” value amounted to 0.113%.

For the compound `COc1ccccc1-c1nnc(Sc2nc([N+](=O)[O-])nn2C)o1`, the “hERG current change (%, negative = inhibition) at 1uM” value is recorded as -2.46%.

For `Cc1nc2cc(Cl)c(Cl)cc2n1-c1ccccn1`, the “hERG current change (%, negative = inhibition) at 1uM” value is on record as -8.18%.

Turning to `Cc1n[nH]c(C)c1CCCCOc1ccc([N+](=O)[O-])cc1`, the “hERG current change (%, negative = inhibition) at 1uM” value was determined as 2.09%.

Take `O=C(NCCCn1ccnc1)/C(=C/c1cccs1)NC(=O)c1ccco1`: the “hERG current change (%, negative = inhibition) at 1uM” value was -2.88%.

Regarding `O=C(COC(=O)c1ccc(CSc2ccc(Cl)cc2)cc1)Nc1ccccc1`, the “hERG current change (%, negative = inhibition) at 1uM” value amounted to 11%.

On to `CN(C)Cc1ccc(CNC(=O)COc2ccc3ccccc3c2)cc1`, for which the “hERG current change (%, negative = inhibition) at 1uM” value was 15.1%.

As to `Cc1ccccc1N(C(=O)Cc1cccs1)C(C(=O)NCC1CCCO1)c1cccnc1` (stereo not shown), the “hERG current change (%, negative = inhibition) at 1uM” value is -4.45%.

For `CCOC(=O)C1(Cc2cccc(OC)c2)CCN(C/C=C/c2ccccc2)CC1`, the “hERG current change (%, negative = inhibition) at 1uM” value is reported as -42.2%.

For the compound `COc1ccc(CNC(=O)COC(=O)/C=C/c2cccs2)cc1`, the “hERG current change (%, negative = inhibition) at 1uM” value is on record as 13.4%.

For `Cc1cc(N)c2ccccc2n1`, the “hERG current change (%, negative = inhibition) at 1uM” value is listed as -7.19%.

For the compound `Cc1cccc(C)c1OCc1nnc(SCC(=O)Nc2nccs2)n1-c1ccccc1`, the “hERG current change (%, negative = inhibition) at 1uM” value came to 2.84%.

For the compound `Cc1ccccc1NC(=O)CC1SCCNC1=O` (stereo not shown), the “hERG current change (%, negative = inhibition) at 1uM” value worked out at 6.98%.

For the compound `COC(=O)c1ccccc1Oc1ccc(NC(=O)CCCl)cc1`, the “hERG current change (%, negative = inhibition) at 1uM” value is recorded as 14.1%.

For the compound `NS(=O)(=O)c1cccc(NC(=O)Nc2ccccc2)c1`, the “hERG current change (%, negative = inhibition) at 1uM” value is 4.02%.

Consider `C/C=C/c1ccc(OCC(O)CNCCc2ccc(OC)cc2)c(OC)c1.O=C(O)C(=O)O` (stereo not shown), for which the “hERG current change (%, negative = inhibition) at 1uM” value is recorded as -37.2%.

With `CSc1ccccc1C(=O)NC1CCCc2ccccc21` (stereo not shown), the “hERG current change (%, negative = inhibition) at 1uM” value is reported as 8.88%.

As to `CCCC(=O)Nc1cccc(NC(=O)c2ccc(C)c([N+](=O)[O-])c2)c1`, the “hERG current change (%, negative = inhibition) at 1uM” value turned out to be 6.66%.

On to `OC(c1ccc(OCc2ccccc2)cc1)c1nnc(-c2ccccc2)o1` (stereo not shown), for which the “hERG current change (%, negative = inhibition) at 1uM” value is 3.77%.

In the case of `COc1ccc(C(=O)OCC(=O)NC(C)CCc2ccccc2)cc1OC` (stereo not shown), the “hERG current change (%, negative = inhibition) at 1uM” value is 13.1%.

For the compound `O=c1c2ccccc2nc2n1C1(CCCCC1)Cc1ccccc1-2`, the “hERG current change (%, negative = inhibition) at 1uM” value was -0.0666%.

Take `O=C(COC(=O)c1cc([N+](=O)[O-])ccc1N1CCOCC1)c1ccc(Br)cc1`: the “hERG current change (%, negative = inhibition) at 1uM” value was -12.4%.

In the case of `C=CCn1c(SCC)nc(O)cc1=O`, the “hERG current change (%, negative = inhibition) at 1uM” value is reported as -5.75%.

Regarding `COc1ccc(NC(=O)CN2C(=O)NC3(CC(C)CC(C)(C)C3)C2=O)cc1S(=O)(=O)N1CCCCC1` (stereo not shown), the “hERG current change (%, negative = inhibition) at 1uM” value is given as -3.09%.
